Measured values: patent US12559529B2, “NPY2 receptor agonists” (Boehringer Ingelheim International GmbH, priority 2019, dated 2026)
At least one compound was matched to its structure with a doubt left.

Tests used:
normal NMRI mice = experiment: Effect on acute food intake in normal NMRI mice; format: in vivo; settings: male NMRI mice, 10 nmol/kg subcutaneously once
Protocol: Male NMRI mice were obtained from Charles River (Charles River, Research Models & Services Germany GmbH) or from Jan Vier (Jan Vier Labs, France) at 5 weeks of age. […] Room temperature was controlled to 21° C.±1° C., with 60%+20% humidity.
Animals were transferred 5-7 days before the start of the study to a real-time food intake monitoring system, HM-2 system (MBRose, Denmark), to allow acclimatization to experimental conditions. As the animals were uniquely identified with microchips, each individual animal was identified by its microchip upon entry and exit from the food channel. Randomization of the mice for each study group (n=7-8) was based on body weight measured the day before the start of the study. A vehicle-treated (50 mM phosphate buffer pH7 with 5% Mannitol) group was included in each experiment. Six hours before the start of the night phase animals were fasted. One hour before the dark phase animals were dosed once subcutaneously (10 nmol/kg) with test peptide. […] The food intake of the treated groups was normalized (in %) to the average food intake of the group receiving vehicle (Table 7). Statistical significance was evaluated using One-way analysis of variance with Turkey's multiple comparison test. P<0.05 was considered statistically significant.

[1] = molecular target: T1, Human Neuropeptide Y2 Receptor (Homo sapiens, UniProt P49146); experiment: Activity (RLB) after incubation in solutions at different pH values; format: binding; settings: ratio of apparent Ki
T1 construct: purchased CHEMICON HTS066M
T1 sequence (P49146 1-381): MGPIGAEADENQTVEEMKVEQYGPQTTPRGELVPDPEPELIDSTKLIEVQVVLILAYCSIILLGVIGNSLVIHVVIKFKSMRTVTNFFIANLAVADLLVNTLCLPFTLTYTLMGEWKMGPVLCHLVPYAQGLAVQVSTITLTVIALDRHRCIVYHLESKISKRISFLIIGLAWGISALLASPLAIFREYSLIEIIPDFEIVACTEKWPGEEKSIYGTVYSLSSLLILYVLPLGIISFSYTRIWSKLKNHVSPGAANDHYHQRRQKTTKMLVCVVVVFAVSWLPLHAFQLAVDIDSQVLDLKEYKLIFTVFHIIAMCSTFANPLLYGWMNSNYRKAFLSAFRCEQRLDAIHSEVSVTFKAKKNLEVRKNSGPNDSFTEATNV
Protocol: The filtration RLB assay was carried out in 96-well plates in a final volume of 100 μl per well. Freeze-dried test peptides were dissolved in 100% dimethyl sulfoxide (DMSO) to stock solutions of 1 mM and serial dilutions were performed in assay buffer (50 mM HEPES, 5 mM MgCl2, 1 mM CaCl2), pH 7.4) containing 0.2% ovalbumin. […] Next, 80 μL membranes (HTS066M, ChemiSCREEN™ Human Neuropeptide Y2 Receptor Membrane Preparation, CHEMICON) were added to each well to give a final protein concentration of 0.5 μg/well. The plates were sealed and incubated at room temperature for 2 hours in a plate shaker set at 400 rpm. The incubation was stopped by vacuum filtration onto 0.5% poly-ethylene amine (PEI) presoaked GF/C filters using a 96-well FilterMate™ harvester (Perkin Elmer) followed by four washes with 300 μl/well ice-cold wash buffer (50 mM HEPES, 500 mM NaCl, pH7.4). Filter plates were then dried for 60 min at room temperature and the bottom of the plates was sealed with backing tape UniFilter-96. Finally, 50 μl/well scintillation counter cocktail (Microscint20, Packard) was added and the radioactivity was counted in the Packard TopCount NXT scintillation counter. IC50 values (the half maximal inhibitory concentration of the agonist) were calculated by nonlinear regression analysis of sigmoidal dose-response curves.
Peptides (as TFA salts) were weighed out in a filter unit (Mini-UniPrep Syringeless Filter 0.45 μm, Whatman), and 0.1 M sodium diphosphate buffer at pH 6.4 or 7.4, respectively, or 0.2 M TRIS buffer at pH 8.3 was added to achieve 10 mg/ml final concentration. The peptide was (partially) dissolved by shaking the filter unit horizontally at approx. 400 rpm for 2 hours at room temperature. The sample was filtered to remove any insoluble particles.

SMILES	Acute Food Intake 24 h [% vehicle] (normal NMRI mice)	RLB ratio (RLB6/RLB7) [1]	RLB ratio (RLB8/RLB7) [1]
CC[C@H](C)[C@H](NC(=O)[C@H](CCC(=O)O)NC(=O)[C@H](CCC(=O)O)NC(=O)[C@@H]1CCCN1C(=O)[C@H](CO)NC(=O)[C@H](C)NC(=O)[C@H](CC(=O)O)NC(=O)[C@H](CCC(=O)O)NC(=O)[C@H](CCC(=O)O)NC(=O)[C@@H]1CCCN1C(=O)[C@H](CCCCNC(=O)COCCOCCNC(=O)COCCOCCNC(=O)CC[C@H](NC(=O)CCCCCCCCCCCCCCCCC(=O)O)C(=O)O)NC(=O)[C@H](C)NC(=O)[C@@H]1CCCN1C(=O)[C@H](C)NC(=O)CC(C)C)C(=O)N[C@@H](CCC(N)=O)C(=O)N[C@@H](CCCNC(=N)N)C(=O)N[C@@H](Cc1ccc(O)cc1)C(=O)N[C@@H](Cc1ccc(O)cc1)C(=O)N[C@H](C(=O)N[C@@H](CO)C(=O)N[C@@H](CC(C)C)C(=O)N[C@@H](CCCNC(=N)N)C(=O)N[C@@H](Cc1c[nH]cn1)C(=O)N[C@@H](Cc1ccc(O)cc1)C(=O)N[C@@H](Cc1ccc(O)cc1)C(=O)N[C@@H](CC(N)=O)C(=O)N[C@@H](Cc1c[nH]c2ccccc12)C(=O)N[C@@H](CC(C)C)C(=O)N[C@H](C(=O)N[C@@H](CCCNC(=N)N)C(=O)N[C@@H](CCC(N)=O)C(=O)N[C@@H](CCCNC(=N)N)C(=O)N[C@@H](Cc1ccc(O)cc1)C(N)=O)[C@@H](C)O)C(C)C [Compound 23, N{alpha-4}-(3-methylbutanoyl)-N{epsilon-7}-[2-(2-{2-[2-(2-{2-[(4S)-4-carboxy-4-(17-carboxyheptadecanamido)butanamido]ethoxy}ethoxy)acetamido]ethoxy}ethoxy)acetamido]-[4A,6A,7K,9E,17I,18Q,22V,28Y,30W,31L]hPYY (4-36)]	48	1.0	1.0
CC(C)CC(=O)N[C@@H](C)C(=O)N1CCC[C@H]1C(=O)N[C@@H](C)C(=O)N[C@@H](CCCCNC(=O)COCCOCCNC(=O)COCCOCCNC(=O)CC[C@H](NC(=O)CCCCCCCCCCCCCCCCC(=O)O)C(=O)O)C(=O)N1CCC[C@H]1C(=O)N[C@@H](CCC(=O)O)C(=O)N[C@@H](CCC(=O)O)C(=O)N[C@@H](CC(=O)O)C(=O)N[C@@H](C)C(=O)N[C@H](C(=O)N1CCC[C@H]1C(=O)N[C@@H](CCC(=O)O)C(=O)N[C@@H](CCC(=O)O)C(=O)N[C@@H](CC(C)C)C(=O)N[C@@H](CCC(N)=O)C(=O)N[C@@H](CCCNC(=N)N)C(=O)N[C@@H](Cc1ccc(O)cc1)C(=O)N[C@@H](Cc1ccc(O)cc1)C(=O)N[C@H](C(=O)N[C@@H](CO)C(=O)N[C@@H](CC(C)C)C(=O)N[C@@H](CCCNC(=N)N)C(=O)N[C@@H](Cc1c[nH]cn1)C(=O)N[C@@H](Cc1ccc(O)cc1)C(=O)N[C@@H](Cc1ccc(O)cc1)C(=O)N[C@@H](CC(N)=O)C(=O)N[C@@H](Cc1c[nH]c2ccccc12)C(=O)N[C@@H](CC(C)C)C(=O)N[C@H](C(=O)N[C@@H](CCCNC(=N)N)C(=O)N[C@@H](CCC(N)=O)C(=O)N[C@@H](CCCNC(=N)N)C(=O)N[C@@H](Cc1ccc(O)cc1)C(N)=O)[C@@H](C)O)C(C)C)[C@@H](C)O [Compound 106, N{alpha-4}-(3-methylbutanoyl)-N{epsilon-7}-[2-(2-{2-[2-(2-{2-[(4S)-4-carboxy-4-(17-carboxyheptadecanamido)butanamido]ethoxy}ethoxy)acetamido]ethoxy}ethoxy)acetamido]-[4A,6A,7K,9E,13T,18Q,22V,28Y,30W,31L]hPYY (4-36)]	39	0.8	0.8
CC[C@H](C)[C@H](NC(=O)[C@H](CCC(=O)O)NC(=O)[C@H](CCC(=O)O)NC(=O)[C@@H]1CCCN1C(=O)[C@H](CO)NC(=O)[C@H](C)NC(=O)[C@H](CC(=O)O)NC(=O)[C@H](C)NC(=O)[C@H](CCC(=O)O)NC(=O)[C@@H]1CCCN1C(=O)[C@H](CCCCNC(=O)COCCOCCNC(=O)COCCOCCNC(=O)CC[C@H](NC(=O)CCCCCCCCCCCCCCCCC(=O)O)C(=O)O)NC(=O)[C@H](CCC(=O)O)NC(=O)[C@@H]1CCCN1C(=O)[C@H](C)NC(=O)CC(C)C)C(=O)N[C@@H](CCC(N)=O)C(=O)N[C@@H](CCCNC(=N)N)C(=O)N[C@@H](Cc1ccc(O)cc1)C(=O)N[C@@H](Cc1ccc(O)cc1)C(=O)N[C@H](C(=O)N[C@@H](CO)C(=O)N[C@@H](CC(C)C)C(=O)N[C@@H](CCCNC(=N)N)C(=O)N[C@@H](Cc1c[nH]cn1)C(=O)N[C@@H](Cc1ccc(O)cc1)C(=O)N[C@@H](Cc1ccc(O)cc1)C(=O)N[C@@H](CC(N)=O)C(=O)N[C@@H](Cc1c[nH]c2ccccc12)C(=O)N[C@@H](CC(C)C)C(=O)N[C@H](C(=O)N[C@@H](CCCNC(=N)N)C(=O)N[C@@H](CCC(N)=O)C(=O)N[C@@H](CCCNC(=N)N)C(=O)N[C@@H](Cc1ccc(O)cc1)C(N)=O)[C@@H](C)O)C(C)C [Compound 53, N{alpha-4}-(3-methylbutanoyl)-N{epsilon-7}-[2-(2-{2-[2-(2-{2-[(4S)-4-carboxy-4-(17-carboxyheptadecanamido)butanamido]ethoxy}ethoxy)acetamido]ethoxy}ethoxy)acetamido]-[4A,7K,9E,10A,17I,18Q,22V,28Y,30W,31L]hPYY (4-36)]	29	1.1	0.8
CC[C@H](C)[C@H](NC(=O)[C@H](CCC(=O)O)NC(=O)[C@H](CCC(=O)O)NC(=O)[C@@H]1CCCN1C(=O)[C@@H](NC(=O)[C@H](C)NC(=O)[C@H](CC(=O)O)NC(=O)[C@H](CCC(=O)O)NC(=O)[C@H](CCC(=O)O)NC(=O)[C@@H]1CCCN1C(=O)[C@H](CCCCNC(=O)COCCOCCNC(=O)COCCOCCNC(=O)CC[C@H](NC(=O)CCCCCCCCCCCCCCCCC(=O)O)C(=O)O)NC(=O)[C@H](CCC(=O)O)NC(=O)[C@@H]1CCCN1C(=O)[C@H](C)NC(=O)CC(C)C)[C@@H](C)O)C(=O)N[C@@H](CCC(N)=O)C(=O)N[C@@H](CCCNC(=N)N)C(=O)N[C@@H](Cc1ccc(O)cc1)C(=O)N[C@@H](Cc1ccc(O)cc1)C(=O)N[C@H](C(=O)N[C@@H](CO)C(=O)N[C@@H](CC(C)C)C(=O)N[C@@H](CCCNC(=N)N)C(=O)N[C@@H](Cc1c[nH]cn1)C(=O)N[C@@H](Cc1ccc(O)cc1)C(=O)N[C@@H](Cc1ccc(O)cc1)C(=O)N[C@@H](CC(N)=O)C(=O)N[C@@H](Cc1c[nH]c2ccccc12)C(=O)N[C@@H](CC(C)C)C(=O)N[C@H](C(=O)N[C@@H](CCCNC(=N)N)C(=O)N[C@@H](CCC(N)=O)C(=O)N[C@@H](CCCNC(=N)N)C(=O)N[C@@H](Cc1ccc(O)cc1)C(N)=O)[C@@H](C)O)C(C)C [Compound 171, N{alpha-4}-(3-methylbutanoyl)-N{epsilon-7}-[2-(2-{2-[2-(2-{2-[(4S)-4-carboxy-4-(17-carboxyheptadecanamido)butanamido]ethoxy}ethoxy)acetamido]ethoxy}ethoxy)acetamido]-[4A,7K,9E,13T,17I,18Q,22V,28Y,30W,31L]hPYY (4-36)]	44	–	–
